Source: the supplement of paper PMC4967469
pIC50: −log10 of the molar value. A lower IC50 marks a more sensitive line; fits outside the tested doses are given as limits. AUC, from the same fit, is the share of area under the viability curve across the 256-fold dose range; it is 1 without any effect and falls as sensitivity rises. The top dose, if marked as inferred, comes from the curve model; the source does not state it.

Legend:
Test in all cases: Viability of human cancer cell lines after 72 h of drug (GDSC screen)
SGC0946 = compound: CC(C)N(CCCNC(=O)Nc1ccc(C(C)(C)C)cc1)C[C@H]1O[C@@H](n2cc(Br)c3c(N)ncnc32)[C@H](O)[C@@H]1O [SGC0946]; settings: top dose 0.5 µM; top dose inferred
Experimental: (§1)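 Human cancer cell lines in 384-well plates, medium with 10% serum, drug for 72 h over a 256-fold dose range (nine 2-fold or five 4-fold steps up to the top dose). Adherent lines were fixed and stained with the nucleic acid dye Syto60, suspension lines read with resazurin; signal relative to control wells, capped at 0 and 100%. One two-parameter sigmoid per drug and line, fitted in a mixed model over all curves with the slope shared within a line.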

Bryostatin 1 = compound: CCC/C=C/C=C/C(=O)O[C@H]1/C(=C/C(=O)OC)C[C@H]2C[C@H]([C@@H](C)O)OC(=O)C[C@H](O)C[C@@H]3C[C@H](OC(C)=O)C(C)(C)[C@](O)(C[C@@H]4C/C(=C/C(=O)OC)C[C@H](/C=C/C(C)(C)[C@]1(O)O2)O4)O3 [Bryostatin 1]; settings: top dose 0.008 µM; top dose inferred
Experimental: as §1

GW-2580 = compound: COc1ccc(COc2ccc(Cc3cnc(N)nc3N)cc2OC)cc1 [GW-2580]; settings: top dose 20 µM; top dose inferred
Experimental: as §1

Lenalidomide = compound: Nc1cccc2c1CN(C1CCC(=O)NC1=O)C2=O [Lenalidomide]; settings: top dose 5 µM; top dose inferred
Experimental: as §1

Row | Cell Line | AUC (SGC0946) | pIC50 (SGC0946) | AUC (Bryostatin 1) | pIC50 (Bryostatin 1) | AUC (GW-2580) | pIC50 (GW-2580) | AUC (Lenalidomide) | pIC50 (Lenalidomide)
1 | ME-1 (acute myeloid leukaemia, suspension) | 0.988 | < 6.30 | 0.989 | < 8.10 | 0.988 | < 4.70 | 0.982 | < 5.30
2 | ME-180 (cervix, adherent) | 0.984 | < 6.30 | 0.982 | < 8.10 | 0.981 | < 4.70 | 0.983 | < 5.30
3 | MEL-JUSO (melanoma, adherent) | 0.982 | < 6.30 | 0.981 | < 8.10 | 0.978 | < 4.70 | 0.957 | < 5.30
4 | MES-SA (uterus, adherent) | 0.991 | < 6.30 | 0.987 | < 8.10 | 0.992 | < 4.70 | 0.992 | < 5.30
5 | MFE-280 (endometrium, adherent) | 0.979 | < 6.30 | 0.967 | < 8.10 | 0.971 | < 4.70 | 0.982 | < 5.30
6 | MFE-296 (endometrium, adherent) | 0.984 | < 6.30 | 0.965 | < 8.10 | 0.962 | < 4.70 | 0.983 | < 5.30
7 | MHH-ES-1 (Ewing sarcoma, adherent) | 0.984 | < 6.30 | 0.979 | < 8.10 | 0.986 | < 4.70 | 0.974 | < 5.30
8 | MHH-PREB-1 (B-cell leukaemia, suspension) | 0.988 | < 6.30 | 0.975 | < 8.10 | 0.977 | < 4.70 | 0.983 | < 5.30
9 | MIA-PaCa-2 (pancreas, adherent) | 0.948 | < 6.30 | 0.972 | < 8.10 | 0.982 | < 4.70 | 0.955 | < 5.30
10 | MKN45 (stomach, adherent) | 0.98 | < 6.30 | 0.981 | < 8.10 | 0.982 | < 4.70 | 0.983 | < 5.30
11 | MMAC-SF (melanoma, adherent) | 0.965 | < 6.30 | 0.986 | < 8.10 | 0.986 | < 4.70 | 0.986 | < 5.30
12 | MOG-G-CCM (glioma, adherent) | 0.981 | < 6.30 | 0.97 | < 8.10 | 0.974 | < 4.70 | 0.976 | < 5.30
13 | MOG-G-UVW (glioma, adherent) | 0.981 | < 6.30 | 0.68 | 8.80 | 0.983 | < 4.70 | 0.965 | < 5.30
14 | MPP-89 (mesothelioma, adherent) | 0.978 | < 6.30 | 0.981 | < 8.10 | 0.964 | < 4.70 | 0.975 | < 5.30
15 | MRK-nu-1 (breast, suspension) | 0.989 | < 6.30 | 0.989 | < 8.10 | 0.99 | < 4.70 | 0.973 | < 5.30
16 | MS751 (cervix, adherent) | 0.979 | < 6.30 | 0.985 | < 8.10 | 0.99 | < 4.70 | 0.99 | < 5.30
17 | MZ2-MEL (melanoma, adherent) | 0.971 | < 6.30 | 0.949 | < 8.10 | 0.971 | < 4.70 | 0.952 | < 5.30
18 | Mewo (melanoma, adherent) | 0.982 | < 6.30 | 0.875 | < 8.10 | 0.975 | < 4.70 | 0.947 | < 5.30
19 | NB1 (neuroblastoma, semi-adherent) | 0.967 | < 6.30 | 0.984 | < 8.10 | 0.896 | < 4.70 | 0.976 | < 5.30

Row | Cell Line | AUC (SGC0946) | pIC50 (SGC0946) | AUC (Bryostatin 1) | pIC50 (Bryostatin 1) | AUC (GW-2580) | pIC50 (GW-2580) | AUC (Lenalidomide) | pIC50 (Lenalidomide)
20 | NB5 (neuroblastoma, adherent) | 0.985 | < 6.30 | 0.983 | < 8.10 | 0.986 | < 4.70 | 0.986 | < 5.30
21 | NB12 (neuroblastoma, adherent) | 0.977 | < 6.30 | 0.969 | < 8.10 | 0.98 | < 4.70 | 0.979 | < 5.30
22 | NB14 (neuroblastoma, adherent) | 0.988 | < 6.30 | 0.989 | < 8.10 | 0.987 | < 4.70 | 0.989 | < 5.30
23 | NB(TU)1-10 (neuroblastoma, adherent) | 0.993 | < 6.30 | 0.992 | < 8.10 | 0.98 | < 4.70 | 0.964 | < 5.30
24 | NCI-H23 (lung adenocarcinoma, adherent) | 0.977 | < 6.30 | 0.987 | < 8.10 | 0.975 | < 4.70 | 0.987 | < 5.30
25 | NCI-H28 (mesothelioma, adherent) | 0.978 | < 6.30 | 0.975 | < 8.10 | 0.981 | < 4.70 | 0.976 | < 5.30
26 | NCI-H69 (small cell lung carcinoma, suspension) | 0.981 | < 6.30 | 0.985 | < 8.10 | 0.949 | < 4.70 | 0.986 | < 5.30
27 | NCI-H187 (small cell lung carcinoma, suspension) | 0.986 | < 6.30 | 0.988 | < 8.10 | 0.987 | < 4.70 | 0.988 | < 5.30
28 | NCI-H209 (small cell lung carcinoma, suspension) | 0.98 | < 6.30 | 0.971 | < 8.10 | 0.955 | < 4.70 | 0.986 | < 5.30
29 | NCI-H292 (lung adenocarcinoma, adherent) | 0.96 | < 6.30 | 0.881 | < 8.10 | 0.969 | < 4.70 | 0.968 | < 5.30
30 | NCI-H322M (lung adenocarcinoma, suspension) | 0.98 | < 6.30 | 0.982 | < 8.10 | 0.987 | < 4.70 | 0.972 | < 5.30
31 | NCI-H358 (lung adenocarcinoma, adherent) | 0.982 | < 6.30 | 0.984 | < 8.10 | 0.972 | < 4.70 | 0.984 | < 5.30
32 | NCI-H441 (lung adenocarcinoma, adherent) | 0.971 | < 6.30 | 0.97 | < 8.10 | 0.981 | < 4.70 | 0.981 | < 5.30
33 | NCI-H520 (lung squamous cell carcinoma, adherent) | 0.986 | < 6.30 | 0.98 | < 8.10 | 0.987 | < 4.70 | 0.987 | < 5.30
34 | NCI-H526 (small cell lung carcinoma, suspension) | 0.989 | < 6.30 | 0.987 | < 8.10 | 0.964 | < 4.70 | 0.989 | < 5.30
35 | NCI-H596 (lung adenocarcinoma, adherent) | 0.972 | < 6.30 | 0.98 | < 8.10 | 0.982 | < 4.70 | 0.982 | < 5.30
36 | NCI-H647 (non-small cell lung carcinoma, adherent) | 0.944 | < 6.30 | 0.964 | < 8.10 | 0.979 | < 4.70 | 0.985 | < 5.30
37 | NCI-H650 (lung adenocarcinoma, adherent) | 0.984 | < 6.30 | 0.983 | < 8.10 | 0.986 | < 4.70 | 0.985 | < 5.30
38 | NCI-H661 (large cell lung carcinoma, adherent) | 0.98 | < 6.30 | 0.982 | < 8.10 | 0.976 | < 4.70 | 0.964 | < 5.30

Row | Cell Line | AUC (SGC0946) | pIC50 (SGC0946) | AUC (Bryostatin 1) | pIC50 (Bryostatin 1) | AUC (GW-2580) | pIC50 (GW-2580) | AUC (Lenalidomide) | pIC50 (Lenalidomide)
39 | NCI-H720 (lung carcinoid, suspension) | 0.991 | < 6.30 | 0.99 | < 8.10 | 0.991 | < 4.70 | 0.992 | < 5.30
40 | NCI-H727 (lung carcinoid, adherent) | 0.973 | < 6.30 | 0.882 | < 8.10 | 0.973 | < 4.70 | 0.975 | < 5.30
41 | NCI-H747 (large intestine, adherent) | 0.979 | < 6.30 | 0.97 | < 8.10 | 0.973 | < 4.70 | 0.98 | < 5.30
42 | NCI-H810 (large cell lung carcinoma, adherent) | 0.984 | < 6.30 | 0.966 | < 8.10 | 0.983 | < 4.70 | 0.987 | < 5.30
43 | NCI-H838 (lung adenocarcinoma, adherent) | 0.983 | < 6.30 | 0.97 | < 8.10 | 0.966 | < 4.70 | 0.987 | < 5.30
44 | NCI-H841 (small cell lung carcinoma, adherent) | 0.958 | < 6.30 | 0.968 | < 8.10 | 0.972 | < 4.70 | 0.988 | < 5.30
45 | NCI-H1048 (small cell lung carcinoma, adherent) | 0.989 | < 6.30 | 0.99 | < 8.10 | 0.978 | < 4.70 | 0.989 | < 5.30
46 | NCI-H1092 (small cell lung carcinoma, suspension) | 0.983 | < 6.30 | 0.99 | < 8.10 | 0.967 | < 4.70 | 0.99 | < 5.30
47 | NCI-H1304 (small cell lung carcinoma, suspension) | 0.858 | 6.33 | 0.978 | < 8.10 | 0.959 | < 4.70 | 0.988 | < 5.30
48 | NCI-H1417 (small cell lung carcinoma, suspension) | 0.978 | < 6.30 | 0.977 | < 8.10 | 0.971 | < 4.70 | 0.963 | < 5.30
49 | NCI-H1435 (lung adenocarcinoma, semi-adherent) | 0.992 | < 6.30 | 0.953 | < 8.10 | 0.961 | < 4.70 | 0.986 | < 5.30
50 | NCI-H1437 (lung adenocarcinoma, adherent) | 0.983 | < 6.30 | 0.906 | < 8.10 | 0.986 | < 4.70 | 0.976 | < 5.30
51 | NCI-H1563 (lung adenocarcinoma, adherent) | 0.983 | < 6.30 | 0.951 | < 8.10 | 0.985 | < 4.70 | 0.975 | < 5.30
52 | NCI-H1568 (lung adenocarcinoma, adherent) | 0.979 | < 6.30 | 0.949 | < 8.10 | 0.98 | < 4.70 | 0.976 | < 5.30
53 | NCI-H1581 (large cell lung carcinoma, semi-adherent) | 0.988 | < 6.30 | 0.99 | < 8.10 | 0.958 | < 4.70 | 0.989 | < 5.30
54 | NCI-H1623 (lung adenocarcinoma, adherent) | 0.982 | < 6.30 | 0.985 | < 8.10 | 0.979 | < 4.70 | 0.985 | < 5.30
55 | NCI-H1648 (lung adenocarcinoma, adherent) | 0.982 | < 6.30 | 0.91 | < 8.10 | 0.968 | < 4.70 | 0.984 | < 5.30
56 | NCI-H1651 (lung adenocarcinoma, adherent) | 0.97 | < 6.30 | 0.984 | < 8.10 | 0.966 | < 4.70 | 0.987 | < 5.30
